Source: PubChem BioAssay AID1745853 (National Center for Advancing Translational Sciences (NCATS), 2022)
The other results are listed elsewhere or left out. These are further read-outs of the screen, such as a control signal, another cell line or another target. No call is given for them.

Key:
Experiment in all cases: Primary Screen for Target Class Profiling of Small Molecule Inhibitors of Methyltransferases
[1] = biological target: Glycine N-methyltransferase (Homo sapiens) (UniProt Q14749); details: purified enzyme, MTase-Glo SAH luminescence; measured here: GNMT inhibition; at 40 µM; stronger effect = lower value
Summary of the method: (§1)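 Each enzyme was assayed with SAM and its substrate. SAH formation detected by MTase-Glo luminescence; single-point 40 uM screen[…].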

[2] = biological target: Guanidinoacetate N-methyltransferase (Homo sapiens) (UniProt Q14353); details: purified enzyme, MTase-Glo SAH luminescence; measured here: GAMT inhibition; at 40 µM; stronger effect = lower value
Summary of the method: as §1

[3] = biological target: Histamine N-methyltransferase (Homo sapiens) (UniProt P50135); details: purified enzyme, MTase-Glo SAH luminescence; measured here: HNMT inhibition; at 40 µM; stronger effect = lower value
Summary of the method: as §1

[4] = biological target: Nicotinamide N-methyltransferase (Homo sapiens) (UniProt P40261); details: purified enzyme, MTase-Glo SAH luminescence; measured here: NNMT inhibition; at 40 µM; stronger effect = lower value
Summary of the method: as §1

[5] = biological target: Phenylethanolamine N-methyltransferase (Homo sapiens) (UniProt P11086); details: purified enzyme, MTase-Glo SAH luminescence; measured here: PNMT inhibition; at 40 µM; stronger effect = lower value
Summary of the method: as §1
% is scaled to controls: 0 for no effect and ±100 for the full control effect.

SMILES	activity change, negative = inhibition [1] [%]	activity change, negative = inhibition [2] [%]	activity change, negative = inhibition [3] [%]	activity change, negative = inhibition [4] [%]	activity change, negative = inhibition [5] [%]
Cc1nnc(-c2cc(-c3cccc(O)c3)ccn2)n1CCc1ccccc1	-3.49	-4.49	-17.7	-4.91	-2.61
CCCn1c(=O)c2ccccc2n2c(=O)n(CC(=O)N3CCN(c4ccccc4F)CC3)nc12	-4.48	4.22	1.23	-6.28	0.026
Cc1ccc(Cl)cc1NC(=O)N1CCn2cccc2C1C (configuration not stated)	-0.054	0	7.03	-8.17	1.64
CC(C)n1c(=O)c2ccc(C(=O)NC3CCCC3)cc2n2c(=O)n(Cc3ccc(Cl)cc3)nc12	-8.26	-1.15	-1.23	-2.69	-2.64
O=C(NCc1ccccc1)c1cnc2n1CCN(Cc1c[nH]c3ccccc13)CC2	-17.6	-5.11	-15.9	-7.16	-42
COC(=O)c1cc2n(n1)CC(C)(C(=O)NC1CCC(C)CC1)N(Cc1cccc(C)c1)C2=O (configuration not stated)	6.04	1.67	10.1	-1.5	3.58
CCN1C(=O)c2cc(C(=O)N3CCN(c4ccccc4F)CC3)nn2CC1(C)C(=O)NC1CCCC1 (configuration not stated)	3.12	4.57	-1.23	3.25	2.73
N#Cc1cccc(C#N)c1-c1nc2c3ccccc3c3cc(Cl)ccc3c2[nH]1	-19.1	-17.1	-21.2	-42.5	-26.4
O=C(O)CC(=O)OC[C@H]1O[C@@H](Oc2ccc3c(c2)OC[C@H]2c4cc5c(cc4O[C@@H]32)OCO5)[C@H](O)[C@@H](O)[C@@H]1O	-3.36	-3.4	4.66	-14.7	-9.78
Cc1noc2c(N3CC[S+](=O)([O-])CC3)cc(-c3cccnc3)nc12	-3.6	-9.18	-3.68	-15.2	-9.24
CN(C)CCN(Cc1cccs1)c1ccccn1	-1.21	-1.22	-20.1	-11.6	-3.77
O=C1NN=C(c2ccccn2)C12CCN([S+](=O)([O-])c1cccc(C(F)(F)F)c1)CC2	-16.6	-17.4	-14.5	-24.3	-11.1
CC(C)n1nc(-c2cc3cc(O)ccc3[nH]2)c2c(N)ncnc21	-26.6	-12.8	-44.3	-34.9	-31.3
COCCn1c(C)cnc1CCNC(=O)NCC(C)C	-2.25	-3.11	-12.9	-4.01	-7.26
CCCn1c(=O)c2ccc(C(=O)NC(C)C)cc2n2c(=O)[nH]nc12	-3.14	4.82	2.23	3.63	-6.22
CC1CCCCC1NC(=O)C1(C)Cn2c(cc3occc32)C(=O)N1Cc1ccc(F)cc1 (configuration not stated)	-8.17	1.42	-4.94	-10	-5.35
Cc1ccccc1CN1C(=O)c2ccc(-c3ccccc3)n2CC1(C)C(=O)NC1CCCCC1 (configuration not stated)	1.82	2.52	2.24	-1.9	-2.49
CN(C)CCC[C@]1(c2ccc(F)cc2)OCc2cc(C#N)ccc21	3.28	–	-61.3	–	–
CCc1ccc(NC(=O)Cn2nc3n(Cc4ccc(F)cc4)c(=O)c4ccccc4n3c2=O)cc1	3.2	0	2.75	0.176	-0.131
O=C(Cn1nc2n(c1=O)CCCC2)N1CCN(c2ccc(F)cc2)CC1	-2.25	-8.1	-2.88	-7.77	-2.69
CCC(C)NC(=O)CSc1nnc2n(Cc3ccccc3)c(=O)c3ccccc3n12 (configuration not stated)	-3.4	0	3.32	-7.6	-5.15
CC1(C(=O)NC2CCCC2)Cn2cnc(C(=O)NCCC3=CCCCC3)c2C(=O)N1C1CC1 (configuration not stated)	-6.16	4.11	-2.67	-8.36	-6.74
Cc1ccc(NS(=O)(=O)c2cc3c(cc2C)n(C)c(=O)n3C)c(C)c1	-2.14	4.44	-11.7	-15.6	-3.48
CCOC(=O)C1=C(C)NC(C)=C(C(=O)OCC)C1c1c(F)c(F)c(F)c(F)c1F	-0.401	11.4	7.92	-15.8	-0.257
Cc1ccc(CNC(=O)Cn2ccc3cc(S(=O)(=O)N4CCCC4)ccc32)o1	3.98	0	7.07	6.71	5.29
COc1ccc(CN2C(=O)c3cc4ccccc4n3CC2(C)C(=O)NCc2ccccc2OC)c(OC)c1 (configuration not stated)	-2.25	2.38	-2.12	-7.05	-2.68
COC1CC(O[C@H]2CC[C@@]3(C)C(CCC4C3[C@H](OC(C)=O)[C@@H](OC(=O)/C=C/c3ccccc3)[C@]3(C)C(C(C)=O)CC[C@]43O)C2)OC(C)C1OC1CC(OC)C(OC2CC(OC)C(OC3OC(C)C(OC4OC(CO)C(O)C(O)C4O)C(OC)C3O)C(C)O2)C(C)O1 (some centres not stated)	-3.29	2.48	-3.03	-6.42	1.41
Cn1c2c(c3ccccc31)C(C(=O)NCc1ccc(F)cc1)N(c1ccc3c(c1)OCO3)C(=O)CS2 (configuration not stated)	-1.17	0	8.27	6.08	8.53
Cc1cccc(CSc2nnc3n(CCC(C)C)c(=O)c4ccccc4n23)c1	-0.591	2.13	6.75	-7.17	3.75
COc1ccc(-c2cc3n(n2)CC(C)(C(=O)NCc2ccccc2)N(Cc2ccccc2)C3=O)cc1 (configuration not stated)	2.17	4.68	1.15	4.35	-0.721
